For one assay, the target named is T1, Activin B (human, UniProt P09529 293-407).
T1 sequence (looked up): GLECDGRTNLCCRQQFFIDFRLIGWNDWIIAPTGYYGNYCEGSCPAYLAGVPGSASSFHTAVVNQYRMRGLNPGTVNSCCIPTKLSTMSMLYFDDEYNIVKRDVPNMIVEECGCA
Nature of the assay: Biacore SPR, BMPRII-Fc captured by anti-Fc antibody, ligand injected. On the procedure:
(§1) A Biacore™-based binding assay was used to determine the ligand binding selectivity of the BMPRII-Fc protein complex described above. The BMPRII-Fc homodimer was captured onto the system using an anti-Fc antibody, and ligands were injected and allowed to flow over the captured receptor protein.
For orientation: In SPR one partner is held on a chip, and binding of the other changes the refractive index at the surface.

Another assay concerns the target T2, BMP15 (human, UniProt O95972 268-392).
T2 sequence (looked up): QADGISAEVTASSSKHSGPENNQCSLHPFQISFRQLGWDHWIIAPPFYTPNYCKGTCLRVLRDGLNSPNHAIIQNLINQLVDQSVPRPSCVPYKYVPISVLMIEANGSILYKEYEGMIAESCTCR
The assay is described as above. The procedure:
as §1

B1: homodimeric BMPRII-Fc fusion protein (extracellular domain of human BMPRII fused to a human immunoglobulin G1 Fc domain) (Fc fusion)
chain: SQNQERLCAFKDPYQQDLGIGESRISHENGTILCSKGSTCYGLWEKSKGDINLVKQGCWSHIGDPQECHYEECVVTTTPPSIQNGTYRFCCCSTDLCNVNFTENFPPPDTTPLSPPHSFNRDETG[letters of human IgG1 Fc and a few adjoining residues not shown]
notes: Expressed in a CHO cell line and captured by an anti-Fc antibody in the Biacore assay; also called BMPRII-Fc homodimer; BMPRII-Fc protein complex
One may read the Kd as the equilibrium constant for the complex coming apart. Read a high Kd as a looser complex. In general, koff refers to the first-order rate constant of dissociation. Usually kon stands for the second-order rate constant of association. The low end stands for slow association, the high end for fast association. For B1, in the assay with Activin B, the Kd was found to be 3.8 nM, the koff stood at 0.075 s⁻¹ and the kon is 2e+07 M⁻¹ s⁻¹. In addition, in the assay with BMP15, the Kd came out at 0.29 nM, the koff amounted to 0.0028 s⁻¹ and the kon turned out to be 9.9e+06 M⁻¹ s⁻¹.
